Experimental data as given in article PMC4336329 (PLoS ONE, 2015).
Out of some 310,000 compounds screened, about 14,000 (4.5%) showed an effect of 50% or more. The effect is printed as a negative number. The list shows a part of the results.

The compounds below were run against human ether-à-go-go-related gene (hERG) potassium channel (human, UniProt Q12809) (assay: primary screen, population patch clamp on CHO cells stably expressing hERG).
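Further: peak tail current of the secondary pulse compared with the same well before compound.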

Chain of human ether-à-go-go-related gene (hERG) potassium channel (Q12809 whole entry, looked up): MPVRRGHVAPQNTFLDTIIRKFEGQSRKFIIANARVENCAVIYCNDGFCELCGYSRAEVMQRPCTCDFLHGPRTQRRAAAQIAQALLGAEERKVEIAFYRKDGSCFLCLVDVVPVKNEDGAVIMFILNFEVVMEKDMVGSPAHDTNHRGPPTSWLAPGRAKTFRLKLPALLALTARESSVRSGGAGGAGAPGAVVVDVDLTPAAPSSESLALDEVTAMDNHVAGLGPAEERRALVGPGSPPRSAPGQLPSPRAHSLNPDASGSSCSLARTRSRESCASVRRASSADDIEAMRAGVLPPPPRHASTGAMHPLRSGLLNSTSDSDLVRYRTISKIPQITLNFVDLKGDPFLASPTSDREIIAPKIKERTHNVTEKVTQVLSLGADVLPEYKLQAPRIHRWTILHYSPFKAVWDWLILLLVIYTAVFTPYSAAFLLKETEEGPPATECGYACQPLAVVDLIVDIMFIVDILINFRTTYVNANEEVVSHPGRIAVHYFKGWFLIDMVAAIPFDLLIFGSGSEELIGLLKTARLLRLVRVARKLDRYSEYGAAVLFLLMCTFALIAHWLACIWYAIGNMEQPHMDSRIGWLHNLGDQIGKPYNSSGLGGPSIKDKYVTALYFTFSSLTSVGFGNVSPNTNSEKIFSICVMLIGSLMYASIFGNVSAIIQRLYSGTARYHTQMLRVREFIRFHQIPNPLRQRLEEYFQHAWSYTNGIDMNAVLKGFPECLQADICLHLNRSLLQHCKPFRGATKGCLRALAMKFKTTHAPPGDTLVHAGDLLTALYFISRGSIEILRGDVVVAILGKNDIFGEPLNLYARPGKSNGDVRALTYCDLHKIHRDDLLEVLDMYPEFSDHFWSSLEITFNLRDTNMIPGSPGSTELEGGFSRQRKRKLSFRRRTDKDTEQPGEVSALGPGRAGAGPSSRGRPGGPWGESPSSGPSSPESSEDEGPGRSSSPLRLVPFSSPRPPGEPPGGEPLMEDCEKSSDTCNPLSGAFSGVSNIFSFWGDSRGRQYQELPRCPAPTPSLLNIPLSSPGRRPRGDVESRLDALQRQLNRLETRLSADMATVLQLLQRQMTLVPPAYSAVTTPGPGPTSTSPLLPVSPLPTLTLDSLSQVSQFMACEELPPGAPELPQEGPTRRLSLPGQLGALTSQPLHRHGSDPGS

Going from `CC(C)C(OC(=O)c1ccco1)C(=O)NC1CCCC1` (centres unmarked) to `CC(OC(=O)c1cccc(Cl)c1)C(=O)NC1CCCCC1C` (centres unmarked), the “hERG current change (%, negative = inhibition) at 10uM” value falls from 10.9% to 7.42%.

First: COc1ccccc1N(CC(=O)NC1CCCCC1)C(=O)c1cnn(C(C)C)c1
Second: O=C(CSc1nc(-c2ccncc2)nn1CC(=O)N1CCCCC1)NC1CCCC1
The “hERG current change (%, negative = inhibition) at 10uM” value of the first is higher: -0.705% for the first, -11.1% for the second.

First: S=c1[nH]c(-c2ccc(Cl)cc2)cs1
Second: Nc1nnc(CSc2ccc(Cl)cc2)s1
The “hERG current change (%, negative = inhibition) at 10uM” value of the first is higher: 27.4% for the first, 14.4% for the second.

First: CC(C)Sc1nc2c(c(=O)[nH]c(=O)n2C)n1CCc1ccccc1
Second: Cn1c(=O)c2c(nc(CN3CCN(CCO)CC3)n2CCc2ccccc2)n(C)c1=O
The “hERG current change (%, negative = inhibition) at 10uM” value of the first is lower: -18% for the first, 10.3% for the second.

First: CCOC(=O)c1nnc(-c2cccs2)nc1Oc1ccccc1C(=O)OC
Second: Cc1ccccc1SCC(=O)OCC(=O)Nc1ccc(N(C)C)cc1
The “hERG current change (%, negative = inhibition) at 10uM” value of the first is lower: 0.0537% for the first, 10.4% for the second.

First: CCOc1ccc(CCNC(=O)CS(=O)Cc2nc(-c3ccc(OC)c(OC)c3)oc2C)cc1OCC (centres unmarked)
Second: COc1ccc(OC)c(CNc2ncc(-c3cccc([N+](=O)[O-])c3)n2C)c1.O=C(O)C(=O)O
The “hERG current change (%, negative = inhibition) at 10uM” value of the first is higher: -4.26% for the first, -54.8% for the second.

Going from `CN1CCN(C(=S)Nc2ccc(S(N)(=O)=O)cc2)CC1` to `COC(=O)c1ccc(C(=O)OC)c(NC(=S)N2CCN(c3cc(Cl)ccc3C)CC2)c1`, the “hERG current change (%, negative = inhibition) at 10uM” value falls from 39.7% to -1.97%.

Compared with `CCCC(=O)Nc1nnc(S(=O)(=O)N(C)Cc2ccco2)s1`, `CCc1ccc(NC(=O)CSc2nnc(-c3ccco3)o2)cc1` is lower in “hERG current change (%, negative = inhibition) at 10uM” value: 12.3% for the first, 2.62% for the second.

Going from `Cc1cc(C)c([N+](=O)[O-])cc1NCC(=O)N1CCN(c2ccccc2)CC1` to `O=C(COc1ccc(Cl)cc1Br)N1CCN(c2ccccc2)CC1`, the “hERG current change (%, negative = inhibition) at 10uM” value falls from 25.7% to 3.78%.

Compared with `CC(C)COc1ccc(-c2cc(C(=O)NN)[nH]n2)cc1`, `CCCCOc1ccc(C(=O)NCc2ccco2)cc1` is lower in “hERG current change (%, negative = inhibition) at 10uM” value: 6.23% for the first, -5.56% for the second.

Compared with `O=c1c2ccccc2nnn1CSc1nnc(-c2cccnc2)n1-c1ccccc1F`, `O=C(c1cccnc1)n1nc(NCc2ccccc2)nc1NCc1ccccc1` is lower in “hERG current change (%, negative = inhibition) at 10uM” value: 11.5% for the first, -21.4% for the second.

Going from `CCOc1ccc(S(=O)(=O)NCCC(=O)N2CCCCCCC2)cc1` to `COCCC(=O)N1CCC(Oc2ccc(C(=O)N3C[C@@H]4CCC[C@H]3C4)cc2)CC1`, the “hERG current change (%, negative = inhibition) at 10uM” value rises from -16.4% to 11.8%.

Compared with `Nc1nnc2c(n1)CCCC2`, `CC1CCCCC1NC(=O)c1cc2ccccc2o1` (centres unmarked) is lower in “hERG current change (%, negative = inhibition) at 10uM” value: -19.9% for the first, -38.9% for the second.

Compared with `CC1=NN(C(N)=S)C(=O)C1N=Nc1c(Cl)cc([N+](=O)[O-])cc1Cl` (centres unmarked), `Nc1nnc(SCC(=O)NNC(=O)c2ccc([N+](=O)[O-])cc2)s1` is lower in “hERG current change (%, negative = inhibition) at 10uM” value: 26.5% for the first, 5.18% for the second.

Going from `O=[N+]([O-])c1cccc(-c2cn(-c3ccccc3)c(=S)[nH]2)c1` to `COc1ccc2nc(Sc3c([N+](=O)[O-])nc(C)n3Cc3ccccc3)[nH]c2c1`, the “hERG current change (%, negative = inhibition) at 10uM” value falls from 13.9% to -12.7%.

First: Cc1ccc(Cn2c(SCC(=O)N/N=C/c3ccccc3OCC(=O)O)nc3ccccc32)cc1
Second: Cc1ccc(NC(=O)Cn2c(=O)c3cccn3c3ccccc32)cc1
The “hERG current change (%, negative = inhibition) at 10uM” value of the first is lower: 1.38% for the first, 8.83% for the second.

First: Cc1cc(C)c2c(c1)C1C=CCC1C(c1ccc(S(=O)(=O)N3CCOCC3)cc1)N2 (centres unmarked)
Second: N#CCCN(C(=O)COC(=O)c1cc(S(=O)(=O)N2CCOCC2)ccc1Cl)c1ccc(F)cc1
The “hERG current change (%, negative = inhibition) at 10uM” value of the first is higher: 7.71% for the first, -47.3% for the second.

First: CC(C)(C)NC(=O)CN(C(=O)Cn1nnc(-c2ccc(Cl)cc2)n1)C1CCN(Cc2ccccc2)CC1
Second: O=C(O)CC(NC(=O)CCc1ccccc1)c1ccc(Cl)cc1 (centres unmarked)
The “hERG current change (%, negative = inhibition) at 10uM” value of the first is lower: -24.5% for the first, 11.7% for the second.

Going from `Cc1ccc(C)c(-c2nn(-c3cc(N4CCN(CCO)CC4)ccc3[N+](=O)[O-])c(=O)c3ccccc23)c1` to `COc1cccc(CNC(=O)c2cccnc2Sc2ccc(C)cc2C)c1`, the “hERG current change (%, negative = inhibition) at 10uM” value rises from -17.8% to -3.27%.

First: Cc1c(C(=O)NNC(=O)c2csc(N3CCOCC3)n2)cccc1[N+](=O)[O-]
Second: CCOC(=O)C1CCN(C(=O)c2cccc(Cl)c2)CC1
The “hERG current change (%, negative = inhibition) at 10uM” value of the first is higher: -1.14% for the first, -7.65% for the second.

Compared with `Cc1cccc(C2c3[nH]c4ccccc4c3CCN2C(=O)Cc2nc(-c3ccccc3)n[nH]2)n1` (centres unmarked), `Cc1ccn2c(NC3CCCCC3)c(-c3cccc(-c4cccc(Cl)c4)c3)nc2c1.O=C(O)C(F)(F)F` is higher in “hERG current change (%, negative = inhibition) at 10uM” value: 0.332% for the first, 8.7% for the second.

First: O=C(NC12CC3CC(CC(C3)C1)C2)c1cccc([N+](=O)[O-])c1
Second: CC(NCCN(C)C)C(=O)C12CC3CC(CC(C3)C1)C2.Cl (centres unmarked)
The “hERG current change (%, negative = inhibition) at 10uM” value of the first is lower: -11.6% for the first, 13.6% for the second.

First: COc1ccc(Cc2nc3ccc(C(=O)NCCn4cccn4)cc3o2)cc1
Second: CCOc1ccc(OCc2ccc(C(=O)Nc3cccnc3)o2)cc1
The “hERG current change (%, negative = inhibition) at 10uM” value of the first is higher: -13.7% for the first, -38.6% for the second.

Going from `COc1ccc(CNC(=O)CN(c2ccccc2)S(=O)(=O)c2ccccc2[N+](=O)[O-])cc1` to `COc1ccc(S(=O)(=O)NC(N)=NCCc2ccccc2)cc1`, the “hERG current change (%, negative = inhibition) at 10uM” value rises from -25.4% to 9.5%.

Compared with `NC(=O)CCCCC(=O)OCCCc1cccs1`, `CCCOc1cccc(C2C(C(=O)c3cccs3)=C(O)C(=O)N2Cc2cccnc2)c1` (centres unmarked) is lower in “hERG current change (%, negative = inhibition) at 10uM” value: 1.8% for the first, -0.761% for the second.

Going from `CCCCP(=O)(CCCC)Cc1ccccc1` to `CCOCCCNC(=O)CN1C(=O)/C(=C/c2ccccc2)Sc2ccccc21`, the “hERG current change (%, negative = inhibition) at 10uM” value falls from 15.3% to -0.186%.

Going from `CC(Cc1ccccc1)NC(=O)/C=C/c1ccc(Cl)cc1` (centres unmarked) to `CC(/C=C/c1ccccc1)=N/NC(=O)CNC(=O)c1ccc2c(c1)OCO2`, the “hERG current change (%, negative = inhibition) at 10uM” value rises from -11.7% to -6.79%.

Going from `O=C(CN1C(=O)C(=O)N(Cc2ccco2)C1=O)c1c[nH]c2ccccc12` to `CC1(c2ccc3c(c2)OCCO3)NC(=O)N(CC(=O)Nc2ccccc2)C1=O` (centres unmarked), the “hERG current change (%, negative = inhibition) at 10uM” value falls from 16.4% to -0.659%.

Going from `O=S(=O)(c1ccccc1)C1(S(=O)(=O)c2ccccc2)CCCC1` to `CSCC[C@H](NC(=O)C1CCN(C(=O)[C@H](Cc2ccccc2)NS(=O)(=O)c2ccc(C)cc2)CC1)C(=O)O`, the “hERG current change (%, negative = inhibition) at 10uM” value rises from -20.6% to 14.7%.

Going from `S=C(Nc1ccc(Br)cc1Cl)Nn1cnnc1` to `Fc1ccc(Br)cc1C1C=C(c2cccnc2)Nc2ncnn21` (centres unmarked), the “hERG current change (%, negative = inhibition) at 10uM” value falls from 49.8% to -34.2%.

Compared with `Cc1cc(C)c(C)c(S(=O)(=O)NCC(=O)NCC2CCCCC2)c1C`, `CCOC(=O)C1=C(C)NC(=S)NC1c1cc(C)sc1C` (centres unmarked) is lower in “hERG current change (%, negative = inhibition) at 10uM” value: 8.41% for the first, 1.19% for the second.

Compared with `Cc1cc(C)n(C(=O)c2sc3cc(F)ccc3c2Cl)n1`, `CCOC(=O)Cn1c2ccc(C)cc2c2nc(C)sc21` is higher in “hERG current change (%, negative = inhibition) at 10uM” value: -3.95% for the first, 1.32% for the second.

Going from `O=C(/C=C/c1ccco1)NC(=S)Nc1ccccn1` to `CNC(=S)NNC(=O)Cc1ccc(O)cc1`, the “hERG current change (%, negative = inhibition) at 10uM” value rises from -3.42% to -3.23%.

Going from `COc1ccc(-c2c(C)c3ccc(O)cc3oc2=O)cc1` to `COc1ccc(OC)c(NC(=O)c2ccc3c(c2)OCO3)c1`, the “hERG current change (%, negative = inhibition) at 10uM” value falls from 25.1% to 19.7%.

Going from `CC(C)C(=O)NNC(=O)CC(=O)Nc1ccccc1C(=O)O` to `CC#CCCCC(=O)Nc1ccc(C(=O)O)cc1`, the “hERG current change (%, negative = inhibition) at 10uM” value falls from 14.8% to 1.36%.

Compared with `CCN(CC)CCNC(=O)c1cc2c(-c3cccc(OC)c3)nn(C)c2s1`, `COc1cccc2[nH]c(C(=O)NCCCN3CCCC3=O)cc12` is higher in “hERG current change (%, negative = inhibition) at 10uM” value: -31.8% for the first, -27% for the second.

Going from `N#Cc1nc(COc2ccc(Br)cc2)oc1NCCCn1ccnc1` to `COc1cccc2cc(C(C)N(CCCN3CCOCC3)C(=S)Nc3c(C)cccc3C)oc12` (centres unmarked), the “hERG current change (%, negative = inhibition) at 10uM” value rises from -63.2% to -17.7%.

First: COCCCN=CC1=C(O)CC(C)(C)CC1=O
Second: CC1(C)CC(=O)C(/C=N/c2ccccn2)=C(O)C1
The “hERG current change (%, negative = inhibition) at 10uM” value of the first is lower: -6.15% for the first, 8.94% for the second.

First: Cc1cc(NC(=O)CN2C(=O)NC3(CCCCCC3)C2=O)ccc1Br
Second: O=C1CC2(CCCCC2)Oc2ccc(OCC(=O)N3CCOCC3)cc21
The “hERG current change (%, negative = inhibition) at 10uM” value of the first is higher: 8.49% for the first, 3.3% for the second.

Compared with `Nc1c(C(=O)Nc2ccc3c(c2)OCCO3)nnn1Cc1ccccc1Cl`, `COc1cccc(C(=O)Nc2ccc3[nH]ncc3c2)c1OC` is higher in “hERG current change (%, negative = inhibition) at 10uM” value: -10.5% for the first, 1.17% for the second.

First: COc1ccc(C(CC(=O)O)NC(=O)OC(C)(C)C)cc1 (centres unmarked)
Second: CCc1ccc(C(C)NC(=O)c2ccc(F)cc2)cc1 (centres unmarked)
The “hERG current change (%, negative = inhibition) at 10uM” value of the first is higher: 9.15% for the first, -4.66% for the second.

Going from `CCC(c1nnnn1Cc1ccc2c(c1)OCO2)N1CCN(CC)CC1.Cl` (centres unmarked) to `O=C1CCC(C(=O)N2CCCC2)CN1CCc1cccc(F)c1` (centres unmarked), the “hERG current change (%, negative = inhibition) at 10uM” value rises from -4.38% to 4.37%.

First: C/C(=N\Nc1nccnc1Cl)c1ccc(F)cc1
Second: CCc1ccc(C(C(=O)NCc2ccc(F)cc2)N(C(=O)c2csnn2)C2CC2)cc1 (centres unmarked)
The “hERG current change (%, negative = inhibition) at 10uM” value of the first is higher: -4.07% for the first, -35.1% for the second.

Going from `Cc1cc(C)nc(Nc2ncc(O)n2-c2ccc(C)c(C)c2)n1` to `CC(=O)c1cccc(N(CC(=O)NCC2CCCO2)C(=O)CCC(=O)Nc2cc(C)on2)c1` (centres unmarked), the “hERG current change (%, negative = inhibition) at 10uM” value falls from 15.2% to 7.89%.

In the case of `O=C(O)COc1cccc2nsnc12`, the “hERG current change (%, negative = inhibition) at 10uM” value is reported as 4.42%.
